Source: the RNAGym collection of RNA variant scans (doi:10.1073/pnas.2313332121)
Variants at the floor of the assay are shown more often than the library holds them.

B1: TPR 5TU (parent)
chain: GGAUCUUCUCGAUCUAACAAAAAAGACAAAUCUGCCACAAAGCUUGAGAGCAUCUUCGGAUGCAGAGGCGGCAGCCUUCGGUGGCGCGAUAGCGCCAACGUUCUCAACUAUGACACGCAAAACGCGUGCUCCGUUGAAUGGAGUUUAUCAUG

Variants of: B1
Assay: polymerase ribozyme fitness, log enrichment relative to wild type (log ratio); higher = more active; in vitro selection for triplet polymerase activity
In short: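 Each subunit of a heterodimeric triplet polymerase ribozyme was represented by a PCR-built, transcribed mutant library that underwent triplicate single-round in vitro selection with frozen incubation at −7 °C. Extended constructs were recovered by gel excision, streptavidin-bead capture and RT-PCR, and Illumina sequencing of input and output libraries kept genotypes with ≥10 input reads and ≥1 read per output. Fitness is the logarithm of genotype enrichment relative to wild-type enrichment, from inverse-variance-weighted replicate averages, with a logarithm base of 2.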

| Variant | polymerase ribozyme fitness (log ratio) |
| --- | --- |
| U15C U145G | 0.506 |
| C14G A49U C57G U77G | ≤ -4.2 |
| C14U A29U C57A A73G G88C A106G | ≤ -4.2 |
| C14U A28C A30G U53A C85G G136A | ≤ -4.2 |
| C14G C38U C43U U55G G94U U102C | ≤ -4.2 |
| U15G A19U U53G A66G C79U G124A | ≤ -4.2 |
| C14U A16G U55G G74U C85G A89G | ≤ -4.2 |
| C14U A22U C79U G88A C96A C125A G141U | ≤ -4.2 |
| C14G G34C A47C C51U G83U G88U A137C | ≤ -4.2 |
| C14G A41U A119C C132G | ≤ -4.2 |
| U15C G25U C54U A121U G136U | ≤ -4.2 |
| U15C C18U A19C A20U G67C C85U G136A G140U | ≤ -4.2 |
| C14G U55A G92U | -2.92 |
| C14U G84A | -1.56 |
| C14G C57U C75U C93U C131G | ≤ -4.2 |
| C14U U15C A24C A29G U55G U56C C87A A115G G136U | ≤ -4.2 |
| C14U G50U C87U U127G | ≤ -4.2 |
| U15G A19G C54U G62A C87U U139C | ≤ -4.2 |
| C14G C18G G46A A52G C76G C87U U104G G126U | ≤ -4.2 |
| C14G G25U C79U U134G U146G C149U | ≤ -4.2 |
| U15C A26G C35U A89C C99U U102C | ≤ -4.2 |

| Variant | polymerase ribozyme fitness (log ratio) |
| --- | --- |
| U15C A21C A28C C54U A64U G68A G84A C87A G88U C132U U139C | ≤ -4.2 |
| U15C A49G C76U A91U | ≤ -4.2 |
| U15C G50C G86U U102G C125A U135A | ≤ -4.2 |
| U15A C43G C87A C116U A142U U151A | ≤ -4.2 |
| C14G C85G G136U | ≤ -4.2 |
| C14G U56C U139A | ≤ -4.2 |
| C14U G46C G50C C108G A113U A120U U127G U145G | ≤ -4.2 |
| C14G U45A G46C G50C G80U C85U A113C | ≤ -4.2 |
| C14G G42U G46C G92C A119U G128A | ≤ -4.2 |
| C14G C18G A19C C54A A60G C85G C125U G141C C149A | ≤ -4.2 |
| C14U A21U C36A A37G | ≤ -4.2 |
| C14U G50C C96A A115G A150G | ≤ -4.2 |
| C14U U53A U56G C69U C95A C108A | ≤ -4.2 |
| C14G A37G A47U C63A G84U A142C U151A | ≤ -4.2 |
| U15A C38U U55C A66U C87G A115C | ≤ -4.2 |
| C14G C27G G59U G67C G88A A89U U101G U139A | ≤ -4.2 |
| C14G U61A | -3.55 |
| C14G U61G | -3.62 |
| C14U A28U A110G | ≤ -4.2 |
| C14U G50A C79A C85A A97U G141U | ≤ -4.2 |
| C14U A22U A41U A120C | -3.1 |

| Variant | polymerase ribozyme fitness (log ratio) |
| --- | --- |
| C14G C87A A122C U144A | ≤ -4.2 |
| U15C A24U C36A C93G A138C | ≤ -4.2 |
| C14G A29G A60G G94C C99U C114U | ≤ -4.2 |
| U15A C35U G50C A73G G84U | ≤ -4.2 |
| C14U C87U C99U G124A C125U | -2.54 |
| U15C A64U C87A A97U | ≤ -4.2 |
| C14G A26U G67A U134G | ≤ -4.2 |
| C14U A21G C38G C57A C79U A138C U148C | ≤ -4.2 |
| C14G A66G G88A G117U C118A U145A | ≤ -4.2 |
| C14U U56C U101G U109G A113C G133A C149G | ≤ -4.2 |
| C14G A29G A37C U77C C95U G141U | ≤ -4.2 |
| C14G A28U C36G A66C C75U C87A | ≤ -4.2 |
| C14U A41C A49G G50A C75G C96A C118A G141U | ≤ -4.2 |
| C14U A49U U56A U144G U148G | ≤ -4.2 |
| C14U U44A A52C C85G | ≤ -4.2 |
| C14U U55G C75U G88A C118U G141C | ≤ -4.2 |
| U15C C93U | -0.331 |
| C14U A28U C57U G74A | ≤ -4.2 |
| C14G A28G A41C C93U G141A | ≤ -4.2 |
| U15A A19C A26U A60G C93U C125U U144A | ≤ -4.2 |
| C14U G25C C38G G67A C69A C96U A121G A147C | ≤ -4.2 |

| Variant | polymerase ribozyme fitness (log ratio) |
| --- | --- |
| U15C G48C A49U A52G A60C C85A G141C G143A U148C | ≤ -4.2 |
| C14G U56A A73G U135C | -4.12 |
| U15A A19G A30U U53G G68A A73G C85G U148G | ≤ -4.2 |
| U15C A91U U104G C105U | ≤ -4.2 |
| U15A U31A G83U C103G U139A | ≤ -4.2 |
| U15A A30U U31A C54U U55G G88A G94U | ≤ -4.2 |
| U15C A22C C51U G81U C85U G94A A122G | -1.17 |
| U15C A19U C43A G59A G84A A115U A120G G152U | ≤ -4.2 |
| C14G G46A G50C G58U C99G A106U G140A | ≤ -4.2 |
| C14U C32A A37C U44A G62C C75U A106G U109A | ≤ -4.2 |
| U15A U31A U45C G92A A106C U144A | ≤ -4.2 |
| C14G C36U G50C C96G C114U | ≤ -4.2 |
| U15C A23C U77G C85U | ≤ -4.2 |
| C14U A52G A64U G74A C131U A142U G152C | ≤ -4.2 |
| C14G U56A | -2.57 |
| C14G U82A U101G | -2.29 |
| C14U A66C U78G C95G C108U | ≤ -4.2 |
| C14U A30U U53C C54U U56C G83C C99U A110G | ≤ -4.2 |
| C14U A24U U55A G70C G94A C116G | ≤ -4.2 |
| C14G A66U C87G A115U | ≤ -4.2 |
